Results reported in PubChem BioAssay AID1346428 (National Center for Advancing Translational Sciences (NCATS), 2018).
The campaign covered roughly 48,000 compounds. About 1,200 (2.5%) were called active. Inconclusive results (about 2%) are left out.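 Rule for the calls: active = activation of at least 60% and not above a set upper limit (about 1 call in 100 departs from these limits); inconclusive = activation of 40% to 60%, or above that upper limit; inactive = activation under 40%.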 This is one part of the list.

Target: Probable G-protein coupled receptor 32 (Homo sapiens) (UniProt O75388)
Assay: qHTS for Agonists of Human Resolvin D1 Receptor DRV1; note: 0% is about no effect
Settings: CHO-K1 GPR32 beta-arrestin PathHunter luminescence, 90 min; at 76.9 µM; stronger effect = higher value; zero percent set by DMSO-only wells
Summary of the method: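 CHO-K1 cells stably expressing ProLink-tagged GPR32 and Enzyme Activator-tagged beta-arrestin were seeded at 2,500 cells/well overnight, exposed to compounds for 90 min at 37 °C, then read by beta-Gal complementation chemiluminescence after 1 h detection reagent.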

UniProt O75388, sequence (O75388 whole entry, looked up): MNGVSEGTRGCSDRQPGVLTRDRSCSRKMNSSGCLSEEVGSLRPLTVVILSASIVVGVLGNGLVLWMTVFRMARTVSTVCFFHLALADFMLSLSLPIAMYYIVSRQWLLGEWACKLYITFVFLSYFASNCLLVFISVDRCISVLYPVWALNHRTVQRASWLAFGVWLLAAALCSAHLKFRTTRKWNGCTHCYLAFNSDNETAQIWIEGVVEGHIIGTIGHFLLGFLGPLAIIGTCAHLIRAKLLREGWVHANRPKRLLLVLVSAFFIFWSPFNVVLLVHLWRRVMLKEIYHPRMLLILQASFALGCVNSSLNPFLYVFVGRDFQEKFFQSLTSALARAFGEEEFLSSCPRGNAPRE

activation, active:
Cc1ccc(N=C2NC(=O)CC(C(=O)Nc3cc(C(F)(F)F)ccc3Cl)S2)cc1 (stereo not drawn) 80.5%
COc1ccc(C(=O)c2sc3nc(-c4ccc(F)cc4)ccc3c2N)cc1 97.7%
Cc1cc(OCC(O)CN2CCN(c3cccc(Cl)c3)CC2)ccc1Cl (stereo not drawn) 69.8%

activation, inactive:
O=C(Nc1cc(-c2nc3cc(Cl)ccc3o2)ccc1Cl)c1cc([N+](=O)[O-])ccc1N1CCOCC1 19.2%
Cc1ccc(CNCc2cccn2-c2nnc(N3CCCC3)s2)cc1 -9.24%
Cc1ccc(-c2nnc(Nc3ccc(F)cc3)c3ccccc23)cc1S(=O)(=O)N1CCN(C)CC1 0.259%
O=C(c1ccccc1Cl)N1CCCCC1CCN1CCOCC1 (stereo not drawn) -15.6%
CCOc1cccc2c1Oc1nc(-c3ccccc3)nc(SCC(=O)Nc3ccc(F)cc3)c1C2 11.2%
CCN(Cc1ccccc1)C(=O)c1cc2c(=O)[nH]c3ccc(C)cc3c2s1 -5.95%
CCc1nnc(SCC(=O)Nc2cc(OC)ccc2OC)nc1CC -11.5%
Cc1ccc(CCNC(=O)c2cc3n(n2)CCCN(Cc2ccc(C)cc2)C3=O)cc1 0.807%
Cc1cccc(Cn2c(COc3ccc(Cl)cc3)nc3ccccc32)c1 13.6%
CCOc1ccc(S(=O)(=O)N(CC(=O)NCCSc2ccc(C)cc2)c2ccccc2)cc1 20.7%
Cc1ccc(NC(=O)N2CCN(c3ccc(Cl)c(Cl)c3)CC2)cc1 -2.58%
COc1ccc(-c2nc(CN3CCC(C(=O)NCCc4ccccc4)CC3)c(C)o2)cc1OC -8.53%
CCCCn1cc(S(=O)(=O)c2ccc(C)c(C)c2)c(=O)c2cc(F)c(N(CC)CC)cc21 -5.28%
CCC(=O)N1CCc2cc(CNC(=O)c3ccc(OC)cc3)ccc21 -12%
CCn1nc(-c2ccccc2)c(-c2ccccc2)c(C(=O)Nc2nc(C)c(C(C)=O)s2)c1=O -10.5%
Cn1c(=O)c(=O)n(C)c2cc(N3CCCC3)c(NC(=O)c3ccccc3F)cc21 3.45%
O=C(Nc1sc2c(c1C(=O)Nc1cccc(Cl)c1)CCCC2)c1cccs1 -4.16%
Cc1ccc(NC(=O)CSc2nc(=O)n(Cc3ccco3)c3c2CCC3)cc1F -34.8%
CCC(=O)N1CCc2cc(CNC(=O)Cc3ccc(F)cc3)ccc21 -23.9%
CCOc1ccc(-c2nnc(SCC(=O)Nc3ccc(C)cc3Cl)o2)cc1 18.1%
Cc1ccc2c(c1)-c1onc(C(=O)N3CCN(c4cc(Cl)ccc4C)CC3)c1CO2 6.62%
COC(=O)c1ccccc1NC(=O)c1cc(CN2CCCC2)on1 -10.6%
N[C@H](C(=O)O)[C@H](Cc1ccccc1)C(=O)O -7.4%
Cc1ccc(NC(=O)c2cc(S(=O)(=O)NC3CCCCC3)ccc2F)cc1Cl -63.5%
CCn1nnc2cc(C(=O)Nc3ccc(C)c(Cl)c3)ccc21 4.92%
Cc1ccc(N(CC(=O)Nc2cc(C)ccc2C)S(=O)(=O)c2c(C)noc2C)cc1 11.8%
O=S(=O)(c1ccc(Cl)cc1)c1nnn2c1nc(NCc1ccc3c(c1)OCO3)c1sccc12 -5.78%
CCOc1ccccc1NC(=O)C1CCN(S(=O)(=O)c2ccc3c(c2)CCCN3C(C)=O)CC1 -0.454%
COc1ccc(-n2c(SCC(=O)c3ccccc3)nc3c([nH]c4ccccc43)c2=O)cc1 0.102%
CCCCN(CC)CCNC(=O)C1CCCN(c2ncnc3onc(C)c23)C1 (stereo not drawn) 3.24%
COc1cc(Cl)c(NS(=O)(=O)c2cc(-c3cc(C)no3)ccc2OC)c(OC)c1 -15.4%
CC(=O)c1ccc(NC(=O)c2ccc(-n3cnnc3)cc2)cc1 -1.31%
CCC(=O)N1c2ccccc2CC1C(=O)NCc1ccc(N(C)C)cc1 (stereo not drawn) -6.81%
Cc1ccc(COC(=O)c2[nH]c3c(c2C)C(=O)CC(c2ccc(N(C)C)cc2)C3)cc1 (stereo not drawn) -2.41%
CCS(=O)(=O)c1ncc(Cl)c(C(=O)Nc2ccccc2)n1 -2.16%
COC(=O)c1sccc1S(=O)(=O)N(CC(=O)Nc1ccccc1F)c1ccccc1 -25.3%
CCOc1ccc(C(=O)c2oc3ccccc3c2NC(=O)c2cc(-c3ccc(Cl)cc3)on2)cc1 14.2%
COc1ccc(-c2nnc(SCC(=O)N(C)C3CCCCC3)o2)cc1OC 5.37%
O=c1oc2c3c(ccc2c2ccccc12)OCN(Cc1ccccc1Cl)C3 -59%
CN(Cc1ccccc1)c1ncnc2c1nnn2C -10.5%
O=S(=O)(NCC(c1ccco1)S(=O)(=O)c1cccs1)c1ccc(Cl)cc1 (stereo not drawn) -6.61%
CCc1nn(CC(=O)N(C)Cc2ccccc2)c(=O)c2cc3sccc3n12 -10.3%
Cc1ccc(CSCCC(=O)NCc2ccc(F)cc2Cl)cc1 -20.5%
CC(=O)c1cccc(NS(=O)(=O)c2cc(-c3cnc(C4CC4)o3)ccc2C)c1 -5.56%
Cc1ccc(C(=O)NCCc2ccc(S(N)(=O)=O)cc2)cc1-n1cnc2cccnc21 -3.11%
Cc1cccc(C(=O)n2nc(-c3cccnc3)nc2NCc2ccccc2)c1 -34.2%
CCn1cc(C(=O)NCCCOC)c(=O)c2cc(S(=O)(=O)N3CCCC3)ccc21 -1.41%
COC(=O)c1c(NC(=O)Cc2coc3ccc(C(C)C)cc23)sc2c1CCC2 -7.64%
O=C(CCCCn1c(=O)c2ccccc2n(CC(=O)Nc2ccc(F)cc2F)c1=O)NCCc1ccccc1 -0.217%
Cc1ccc(NC(=O)Nc2ccccc2OCc2cc(=O)n3ccccc3n2)c(Cl)c1 -3.12%
COc1ccccc1OCc1nc(C#N)c(NCc2ccc(C)cc2)o1 -25.8%
CC(C)(C)OC(=O)N1CCC(c2c(C(=O)N3CCCCC3)cnn2-c2ccccc2Cl)CC1 -13.4%
Cn1c(=O)oc2cc(S(=O)(=O)CCC(=O)NCCc3ccc(Cl)cc3)ccc21 1.44%
COc1ccc(NCc2cc3cc4c(cc3n(CC(=O)Nc3ccc(C)c(C)c3)c2=O)OCO4)cc1 -40%
CCn1cc(C(=O)O)c(=O)c2cc(F)c(N3CCNCC3)cc21 -0.644%
Cn1c(=O)c2sccc2n2c(CCCC(=O)NC3CCCCC3)nnc12 -1.39%
Cc1ccc(Cl)cc1N1CCN(S(=O)(=O)c2cc(Br)cc3c2N(C(=O)C2CC2)CC3)CC1 2.13%
COc1ccc(-c2nn(-c3ccccc3)cc2C2NC(=O)NC(C)=C2C(=O)OC(C)C)cc1Cl (stereo not drawn) 6.93%
CC(=O)Nc1ccc(NC(=O)C(Cc2ccccc2)NS(=O)(=O)c2ccc3c(c2)oc(=O)n3C)cc1 (stereo not drawn) -12.5%
CCOC(=O)CC(NC(=O)CCc1c(C)nc2c(c1C)c(=O)n(C)c(=O)n2C)c1ccc(OCC)c(OC)c1 (stereo not drawn) -12.8%
CCOC(=O)c1cc(-c2ccc(F)cc2)n(CCC(=O)Nc2nc3ccc(OC)cc3s2)c1C -31.1%
CC(C)c1ccc(NS(=O)(=O)c2ccc3[nH]cc(C(=O)NCCc4ccccc4)c(=O)c3c2)cc1 -14.1%
Cc1ccc(-n2nc(C)c3c(C)cc(=O)n(CC(=O)NC(C)c4ccccc4)c32)cc1 (stereo not drawn) -2.04%
COc1ccc(S(=O)(=O)N(CC(=O)Nc2cc(Cl)ccc2C)Cc2ccccc2)cc1OC -4.91%
CCOc1ccc(S(=O)(=O)Nc2cc3c(C(=O)OC)c(COC)oc3c3ccccc23)cc1 3.65%
CCn1nc(C)c2c(-c3ccccc3)cc(=O)n(C(C)C(=O)NCCc3ccc(OC)c(OC)c3)c21 (stereo not drawn) -17.5%
CCOc1cc(-c2ccc(OC(=O)c3ccc(OC)cc3)c(OC)c2)cc(=O)c2c(C)oc(C)c12 -22.1%
COc1ccc(N2C(=O)Cc3cc(OC)c(OC)cc3C2c2ccc(F)cc2)cc1 (stereo not drawn) 9.19%
COc1ccc(S(=O)(=O)Nc2cc3c(C(=O)OC(C)C)c(C)oc3c3ccccc23)cc1 37.8%
COc1ccc(CNC(=O)CN2C(=O)CCn3nc(-c4ccccc4)cc32)c(OC)c1 -1.59%
CC(CCc1ccccc1)NC(=O)CSc1n[nH]c(-c2ccc(F)cc2)n1 (stereo not drawn) 21.6%
COc1ccc(-c2ccc(CCC(=O)O)n2-c2ccccc2O)cc1 -7.88%
CC1=C(C(=O)Nc2ccc(C)cc2C)C(c2ccc(O)cc2)n2nc(SCC(=O)c3ccc(C)cc3)nc2N1 (stereo not drawn) 0.351%
Cn1c(Nc2ccc(Cl)cc2)cc(=O)n(C)c1=O -17%
Cc1oc2ncn(C)c(=O)c2c1C(=O)NCc1ccc(Cl)cc1 -6.99%
COc1ccc(-c2nc(Cn3c(SCc4cccc(C(F)(F)F)c4)nc4cccnc43)c(C)o2)cc1OC -17.9%
COc1ccc(OC)c(CNC(=O)C2CCCCN2S(=O)(=O)c2ccc(F)cc2)c1 (stereo not drawn) -2.69%
COc1ccc(C(=O)Nc2ccc(S(=O)(=O)N(Cc3ccccc3)c3ccccc3)cc2)cc1 -0.507%
COc1ccc(-c2nn3c(=O)cc(CN4CCN(S(=O)(=O)c5ccc(C)cc5)CC4)nc3s2)cc1 13.6%
CC(C)Cc1nn2c(=O)cc(COC(=O)c3ccccc3NC(=O)C3CCCCC3)nc2s1 -15.8%
